# Results published in PubChem BioAssay AID686979 (National Center for Advancing Translational Sciences (NCATS), 2013).
# Values joined by “and” are separate entries in the source; they are usually repeats but may differ in a detail not shown here. Identical values can stand only once. Out of some 420,000 compounds screened, about 50,000 (12%) were called active. The shares of active, inactive and inconclusive entries below differ from those in the screen. Calls come from the whole dose curve; as a rule, active = well fitted inhibition curve with a large enough effect; inconclusive = small, poorly fitted or top-dose-only effect; inactive = flat fitted curve, though single readings scatter. No potency is given beside an inconclusive call; the fits are too rough.
# Experiment: qHTS for Inhibitors of human tyrosyl-DNA phosphodiesterase 1 (TDP1): qHTS in cells in presence of CPT; note: nearly all actives have a fitted effect of over 55% in size
# Settings: chicken DT40 Tdp1-/-;hTDP1 cells + 20 nM CPT, ATP luminescence, 48 h; series mostly up to 46.2 µM
# Summary of the method: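 Chicken DT40 Tdp1-/- cells complemented with human TDP1, 400 cells/well, exposed to compounds plus 20 nM camptothecin for at least 48 h at 37 C; viability read as ATP content by CellTiter-Glo luminescence.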
# Potency is the fitted concentration of half-maximal effect; tags give direction and shape of the fitted curve.
row,Compound,Potency
1,COc1ccccc1NC(=O)C(C)N(C)CCOc1ccccc1 (stereo not drawn),"inconclusive [inhibitor, single point]"
2,CCc1ccccc1NC(=O)Cn1nnc(C(=O)NCc2cccs2)c1N,active: 4.61 µM and active: 3.66 µM
3,Cc1ccsc1/C=C1/SC(N2CC(C)OC(C)C2)=NC1=O (stereo not drawn),"inconclusive [inhibitor, single point]"
4,CCCC(C)C(=O)Nc1nc(C)c(-c2csc(Nc3ccc(Cl)cc3)n2)s1 (stereo not drawn),"inconclusive [inhibitor, single point]"
5,O=[N+]([O-])c1cc(Cl)cc(/C=N\Nc2ccccn2)c1O,active: 5.17 µM
6,O=C(O)c1ccccc1C(=O)Nc1ccccc1,inactive
7,COC(=O)[C@@]12C[C@@H](CC(=O)NCc3cccc(C(F)(F)F)c3)C(=O)N(Cc3cccc4ccccc34)C1=CCC(C)(C)C2,active: 16.4 µM
8,CCCCN(C(=O)CCNC(=O)NC12CC3CC(CC(C3)C1)C2)c1c(N)n(CCC)c(=O)[nH]c1=O,inactive
9,CC(=O)n1cc(/C=N/NC(=O)c2ccc(Cl)cc2)c2ccccc21,inactive
10,COc1ccc(CN(CCC(C)C)S(=O)(=O)c2ccccc2Br)c(OC)c1,"inconclusive [inhibitor, single point]"
11,CCN(CC1CCCO1)C(=O)c1cc(COc2cc(C)c(Cl)c(C)c2)on1 (stereo not drawn),"inconclusive [inhibitor, partial curve, poor fit]"
12,S=c1[nH]nc(C2CC2c2ccc(Cl)cc2)n1-c1ccc(Cl)cc1 (stereo not drawn),"inconclusive [inhibitor, single point]"
13,Cc1cccc2c1NC(=O)C21OCC(CO)([N+](=O)[O-])CO1 (stereo not drawn),"inconclusive [inhibitor, partial curve, poor fit]"
14,Cc1nnc(SCC(=O)Nc2nc3c(s2)CC(C)CC3)s1 (stereo not drawn),"inconclusive [inhibitor, partial curve]"
15,COc1ccc(-c2cc(C(=O)Nc3ccccc3O)c3ccccc3n2)cc1,"inconclusive [inhibitor, single point]"
16,c1ccc(-n2c(SCc3nc(-c4cccs4)no3)nnc2-c2ccco2)cc1,"inconclusive [inhibitor, partial curve]"
17,COc1ccc(CNCCSc2nnnn2-c2ccccc2)c(OC)c1,"inconclusive [inhibitor, single point]"
18,CC(=O)/C(C(=N)N1CCN(C(c2ccccc2)c2ccccc2)CC1)=C(\C)O,inactive
19,Cc1cccc(CC2S/C(=N/c3ccccn3)NC2=O)c1 (stereo not drawn),"inconclusive [inhibitor, single point]"
20,Cc1nc(-c2ccc(F)cc2)c(CC(=O)N2CCN(S(=O)(=O)c3ccccc3Br)CC2)s1,"inconclusive [inhibitor, partial curve]"
21,CCC(/C=C1\Sc2ccc(OC)cc2N1CCO)=C\c1sc2ccc(OC)cc2[n+]1CCO,active: 3.26 µM
22,Cc1ccc(O)c(N=Cc2cccs2)c1,active: 23.1 µM

row,Compound,Potency
1,O=C(CSc1nccn1Cc1ccc(F)cc1)Nc1ccc2c(c1)OCO2,"inconclusive [inhibitor, full curve, poor fit]"
2,COc1ccc(NC(=O)COc2ccc(C(=O)NCc3cccnc3)cc2OC)cc1,"inconclusive [inhibitor, single point]"
3,Cn1ncc2c(Nc3cccc(Cl)c3)nc(Nc3cccc(Cl)c3)nc21,active: 16.4 µM
4,Cc1cccc(-c2c(NC(=O)c3ccco3)oc3c(C)cccc3c2=O)c1,"inconclusive [inhibitor, single point]"
5,CC(C)(C)n1nnnc1C(c1cccc(C#N)c1)N1CCC(Cc2ccccc2)CC1 (stereo not drawn),"inconclusive [inhibitor, single point]"
6,COC(=O)C1C(=O)c2c([nH]c(C(=O)OC3CCCCC3)c2C)CC1C (stereo not drawn),"inconclusive [inhibitor, full curve]"
7,COC(=O)c1ccc(-n2c(C)ccc2-c2ccccc2)cc1,"inconclusive [inhibitor, single point]"
8,O=C(Nc1ccc([N+](=O)[O-])cc1)C1C(c2ccccc2)=C1c1ccccc1,"inconclusive [inhibitor, single point]"
9,CCCN(CCC)C(=O)CSc1ncccc1C(=O)O,inactive
10,COc1cc(NC(=O)Cc2ccc(Cl)cc2)ccc1NC(=O)c1ccco1,"inconclusive [inhibitor, single point]"
11,Cc1c(C)n(CC(O)CSc2ccccc2)c2ccccc12 (stereo not drawn),"inconclusive [inhibitor, single point]"
12,CCN1C(c2ccc(F)cc2)=CS/C1=C(\C#N)c1nnc2n1-c1ccccc1SC2,"inconclusive [inhibitor, single point]"
13,Cc1nc(-c2cccc(F)c2)sc1CCNC(=O)c1ccc(F)c(F)c1,"inconclusive [inhibitor, single point]"
14,CCCCCCCCCCCCCCCC(O)C[N+](C)(C)CCO (stereo not drawn),active: 5.17 µM
15,CCOc1ccc(Nc2oc(-c3ccc(COc4ccccc4C)o3)nc2C#N)cc1,"inconclusive [inhibitor, single point]"
16,COc1ccc(Cc2ccc(OC)c(N)c2)cc1N,"inconclusive [inhibitor, single point]"
17,CCN(CCCn1c(=S)[nH]c2ccc(N3CCOCC3)cc2c1=O)c1ccccc1,active: 11.6 µM
18,O=C(NCC(c1ccco1)N1CCN(c2ccccc2)CC1)c1ccc2c(c1)OCO2 (stereo not drawn),"inconclusive [inhibitor, single point]"
19,O=C(N/N=C/c1ccc(O)c([N+](=O)[O-])c1)C(O)(c1ccccc1)c1ccccc1,"inconclusive [inhibitor, single point]"
20,CC(=O)Nc1ccc2nc3c(=O)n(C)c(=O)n(C)c3nc2c1,inactive
21,Cc1ccc(Nc2nnc(-c3ccc(C)c(S(=O)(=O)N4CCCCC4)c3)c3ccccc23)cc1,"inconclusive [inhibitor, full curve, poor fit]"
